The campaign covered roughly 39,000 compounds. About 220 (0.56%) showed activity. Some of the results follow.
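Further: static incubation at 37 °C against the wild-type strain, values averaged over two biological replicates.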

For this experiment, the system named is Escherichia coli K-12 BW25113. As to the kind of experiment: relative growth (OD600 normalised to plate interquartile mean) (fraction); higher = less growth inhibition, active = 0.2 or less. Conditions: 50 µM; LB; incubation time: overnight (16-24 h).
Take `NCCc1c(C(=O)O)[nH]c2ccc(Br)cc12`: the relative growth was inactive: 1. Regarding `COc1cc2ccnc(CCCN)c2cc1OC`, the relative growth was inactive: 0.993. `COC(=O)C1=CO[C@@H](O[C@@H]2O[C@H](CO)[C@@H](O)[C@H](O)[C@H]2O)[C@@H]2[C@@](C)(O)[C@@H](OC(=O)/C=C/c3ccc(OC)c(OC)c3)C[C@]12O`: the relative growth is inactive: 0.998. With `C[C@@H]1CN([C@@H](C)CO)C(=O)c2cc(NC(=O)c3ccccc3)ccc2O[C@@H](C)CCCCO[C@H]1CN(C)S(=O)(=O)c1ccc(F)cc1`, the relative growth was inactive: 1.

For the compound `Cc1noc(C)c1NC(=O)Nc1ccc2c(c1)C(=O)N([C@@H](C)CO)C[C@H](C)[C@@H](CN(C)C(=O)NC(C)C)O2`, the relative growth is inactive: 0.962. Regarding `C[C@H](CO)N1C[C@H](C)[C@@H](CN(C)C(=O)Nc2ccc(C(F)(F)F)cc2)Oc2ccc(NC(=O)Cn3cnnn3)cc2CC1=O`, the relative growth was inactive: 0.956. Regarding `Cc1ccc(S[C@]2(C(=O)NCCCN(C)C)CC(=O)N(Cc3ccccc3C(F)(F)F)[C@@H]2c2ccc(CO)cc2I)cc1`, the relative growth was inactive: 0.948. As for `COc1ccc(NC(=O)Nc2cccc3c2O[C@@H](CN(C)Cc2ccc(Oc4ccccc4)cc2)[C@@H](C)CN([C@@H](C)CO)C3=O)cc1`, the relative growth is inactive: 0.979. Take `COCC(=O)Nc1ccc2c(c1)C(=O)N(C)C[C@H](OC)[C@H](C)CN(C(=O)Cc1cccnc1)[C@H](C)CO2`: the relative growth is inactive: 0.988. With `Cc1ccc(S(=O)(=O)Nc2ccc3c(c2)C(=O)N([C@@H](C)CO)C[C@@H](C)[C@H](CN(C)Cc2ccccc2)OCCCC[C@@H](C)O3)cc1`, the relative growth was inactive: 0.994.

As for `O=C(C[C@H]1CC[C@H]2[C@@H](COC[C@H](O)CN2C(=O)Nc2ccc(Cl)c(Cl)c2)O1)NCc1ccncc1`, the relative growth was inactive: 0.917.

With `C[C@@H]1CCCCO[C@@H](CN(C)S(=O)(=O)c2ccc(F)cc2)[C@@H](C)CN([C@H](C)CO)C(=O)c2cc(NC(=O)c3ccccc3)ccc2O1`, the relative growth was inactive: 1.02. For `Cc1noc(C)c1NC(=O)N(C)C[C@H]1Oc2ccc(NS(=O)(=O)c3ccccc3)cc2C(=O)N([C@H](C)CO)C[C@@H]1C`, the relative growth is inactive: 0.998. Consider `C[C@@H](NC(=O)c1ccccc1)C(=O)NN`, for which the relative growth was inactive: 0.993. `Cc1nc2c(C)cccc2c2c1COC2`: the relative growth is inactive: 0.898. As to `C[C@H]1CN([C@@H](C)CO)C(=O)Cc2cc(NS(C)(=O)=O)ccc2O[C@@H]1CN(C)S(=O)(=O)c1cn(C)cn1`, the relative growth was inactive: 0.996. `C[C@H]1CN([C@@H](C)CO)C(=O)Cc2cc(NC(=O)Cn3cnnn3)ccc2O[C@H]1CN(C)S(=O)(=O)c1cn(C)cn1`: the relative growth was inactive: 0.985. Turning to `O=c1c(O)c(-c2cc(O)c(O)c(O)c2)oc2cc(O)cc(O)c12`, the relative growth is inactive: 1.05.

`CCCC(=O)Nc1ncnc2c1ncn2C1OC2COP(=O)([O-])OC2C1OC(=O)CCC.[Na+]` (stereo unspecified): the relative growth was inactive: 0.96. As to `C[C@H](CO)N1C[C@H](C)[C@H](CN(C)S(=O)(=O)c2ccccc2)Oc2ccc(NS(=O)(=O)c3cn(C)cn3)cc2C1=O`, the relative growth is inactive: 1. To `Nn1c(=S)[nH]c2cc(C(=O)O)ccc2c1=O` belongs inactive: 1.02; to `Cc1noc(C)c1S(=O)(=O)Nc1ccc2c(c1)C(=O)N([C@@H](C)CO)C[C@H](C)[C@@H](CN(C)S(=O)(=O)c1cn(C)cn1)O2`, inactive: 0.982. On to `CC(C)C(N)C(=O)O` (stereo unspecified), for which the relative growth is inactive: 0.948. Take `C[C@H]1CN([C@@H](C)CO)C(=O)c2cccc(NC(=O)c3ccc(-c4nccs4)cc3)c2O[C@H]1CN(C)Cc1ccc(C(F)(F)F)cc1`: the relative growth was inactive: 0.966.

As for `CN1CCN(C(=O)C[C@H]2CC[C@@H]3[C@H](COC[C@@H](O)CN3C(=O)C3CCOCC3)O2)CC1`, the relative growth was inactive: 0.977.

Take `CCOC(=O)CCCCCC(=O)Nc1ccc2c(c1)C(=O)N([C@H](C)CO)C[C@@H](C)[C@@H](CN(C)S(=O)(=O)c1ccc(C)cc1)OCCCC[C@H](C)O2`: the relative growth was inactive: 1.06. As for `C[C@@H]1CN([C@@H](C)CO)C(=O)c2cc(NC(=O)Nc3ccc(F)cc3)ccc2O[C@@H](C)CCCCO[C@H]1CN(C)Cc1ccc(Cl)c(Cl)c1`, the relative growth is inactive: 1.03. Regarding `Cc1ccc(S(=O)(=O)N(C)C[C@H]2Oc3cc(Br)ccc3S(=O)(=O)N([C@H](C)CO)C[C@H]2C)cc1`, the relative growth was inactive: 1.02. As to `C[C@H]1CN([C@@H](C)CO)C(=O)c2cc(/C=C/c3ccccc3)cnc2O[C@@H]1CN(C)C(=O)CN1CCOCC1`, the relative growth was inactive: 0.996. With `Cc1ccc(S(=O)(=O)n2cc([C@H]3CC(=O)N(C(=O)OCc4ccccc4)[C@H]3C(=O)Nc3cccc4cccnc34)c3ccccc32)cc1`, the relative growth was inactive: 1.04. As to `C[C@@H]1CN([C@H](C)CO)C(=O)c2cc(NS(=O)(=O)c3cn(C)cn3)ccc2O[C@@H]1CN(C)C(=O)Nc1ccc(F)cc1`, the relative growth was inactive: 1.01.

In the case of `C[C@H](CO)N1C[C@H](C)[C@@H](CN(C)S(=O)(=O)c2ccccc2)OCCCC[C@H](C)Oc2ccc(NC(=O)CCC(F)(F)F)cc2C1=O`, the relative growth was inactive: 0.931.

Take `COc1ccc(CN(C)C[C@H]2OCCCC[C@@H](C)Oc3ccc(NC(=O)Nc4ccc(C(F)(F)F)cc4)cc3C(=O)N([C@@H](C)CO)C[C@H]2C)cc1`: the relative growth was inactive: 1. For the compound `C[C@@H]1CCCCO[C@H](CN(C)C(=O)Nc2ccc(C(F)(F)F)cc2)[C@@H](C)CN([C@H](C)CO)C(=O)c2cc(NS(=O)(=O)c3cccs3)ccc2O1`, the relative growth was inactive: 1.01. Regarding `C[C@H](CO)N1C[C@H](C)[C@H](CN(C)CC2CC2)OCCCC[C@H](C)Oc2ccc(NC(=O)c3ccccc3)cc2C1=O`, the relative growth is inactive: 0.981.

With `C[C@@H]1CN([C@@H](C)CO)C(=O)c2cc(NC(=O)Nc3cccc4ccccc34)ccc2O[C@H]1CN(C)Cc1ccc(C(=O)Nc2ccccc2N)cc1`, the relative growth was inactive: 1.

On to `O=C1NC(=O)[C@H]2[C@@H]1[C@H](c1ccccc1)N1[C@@H]3C(=O)NC(=O)[C@@H]3[C@H](c3ccccc3)N21`, for which the relative growth was inactive: 0.993. As for `C[C@@H]1CCCCO[C@H](CN(C)Cc2ccc(C(F)(F)F)cc2)[C@@H](C)CN([C@@H](C)CO)C(=O)c2cc(NC(=O)C3CCCCC3)ccc2O1`, the relative growth was inactive: 0.993. On to `C[C@@H]1CN([C@@H](C)CO)C(=O)c2cc(C#CC3(O)CCCC3)cnc2O[C@@H]1CN(C)C(=O)Cc1ccncc1`, for which the relative growth is inactive: 1.05. Consider `CCOC(=O)C1=NNC[C@@H]1C(=O)OCC`, for which the relative growth was inactive: 1. With `COc1ccc(NC(=O)Nc2ccc3c(c2)C(=O)N([C@H](C)CO)C[C@H](C)[C@H](CN(C)S(=O)(=O)c2c(C)noc2C)OCCCC[C@@H](C)O3)cc1`, the relative growth is inactive: 1.04.

`C[C@@H]1CN([C@@H](C)CO)C(=O)c2c(c3ccccc3n2C)-c2ccccc2CO[C@@H]1CN(C)S(=O)(=O)c1cn(C)cn1`: the relative growth was inactive: 1.02. The result for `COc1ccc(-c2cc(=O)c3c(O)cc(O)cc3o2)cc1` reads inactive: 1.11; that for `CC(C)NC(=O)Nc1ccc2c(c1)C(=O)N([C@@H](C)CO)C[C@H](C)[C@@H](CN(C)C(=O)Nc1ccccc1)OCCCC[C@@H](C)O2`, inactive: 0.992. Regarding `COc1ccc(NC(=O)Nc2ccc3c(c2)[C@@H]2C[C@H](CC(=O)N4CCN(C)CC4)O[C@H](CO)[C@@H]2O3)cc1`, the relative growth was inactive: 0.996. For `C[C@@H]1CN([C@@H](C)CO)C(=O)c2cc(NC(=O)C3CCCCC3)ccc2O[C@@H](C)CCCCO[C@@H]1CN(C)Cc1ccccc1`, the relative growth is inactive: 1. `COC(=O)[C@H](Cc1ccccc1)N1CC2=C[C@@H](C3CC3)n3c(=O)n(C)c(=O)n3[C@H]2[C@@H]1[C@@H](O)Cc1ccccc1`: the relative growth was inactive: 1. Regarding `C[C@H]1CN([C@@H](C)CO)C(=O)c2cc(NC(=O)CCCN(C)C)ccc2O[C@@H]1CN(C)C(=O)Nc1ccc(F)cc1`, the relative growth was inactive: 1.

`Cc1noc(C)c1S(=O)(=O)Nc1ccc2c(c1)C(=O)N([C@H](C)CO)C[C@H](C)[C@@H](CN(C)C(=O)NC(C)C)O2`: the relative growth was inactive: 1.02. For the compound `OCc1cnccn1`, the relative growth was inactive: 0.996. The result for `O=c1c(O)cccc2cc(O)c(O)c(O)c12` reads inactive: 0.903; that for `CN1C(=O)c2cc(NC(=O)c3cnccn3)ccc2OC[C@H]2O[C@@H](CC(=O)N[C@@H]3CCN(Cc4ccccc4)C3)CC[C@@H]21`, inactive: 0.995. Take `COC[C@@H](O)CSc1[nH]c(C)nc1[N+](=O)[O-]`: the relative growth was inactive: 1.01. Regarding `CC(C)NC(=O)Nc1ccc2c(c1)CC(=O)N([C@@H](C)CO)C[C@H](C)[C@@H](CN(C)Cc1ccc3c(c1)OCO3)O2`, the relative growth is inactive: 1. As to `C[C@H](CO)N1C[C@H](C)[C@H](CN(C)C(=O)Nc2cccc3ccccc23)Oc2c(NS(=O)(=O)c3cccs3)cccc2C1=O`, the relative growth was inactive: 0.996. `Cc1noc(C)c1NC(=O)Nc1ccc2c(c1)C(=O)N([C@@H](C)CO)C[C@H](C)[C@@H](CN(C)CC1CC1)OCCCC[C@H](C)O2`: the relative growth is inactive: 1.01.

`Cc1ccc(S(=O)(=O)N(C)C[C@@H]2Oc3ccc(NC(=O)c4ccncc4)cc3C(=O)N([C@@H](C)CO)C[C@@H]2C)cc1`: the relative growth was inactive: 1. Regarding `O=C(C[C@H]1CC[C@H]2[C@@H](COC[C@@H](O)CN2S(=O)(=O)c2ccccc2Cl)O1)NCc1ccccc1Cl`, the relative growth is inactive: 1.02. Regarding `COc1ccc(S(=O)(=O)Nc2ccc3c(c2)[C@H]2C[C@@H](CC(=O)NCC4CC4)O[C@@H](CO)[C@H]2O3)cc1`, the relative growth was inactive: 0.974. As to `Cc1ccc(S(=O)(=O)NC(=O)NN2CC3CCCC3C2)cc1` (stereo unspecified), the relative growth is inactive: 1.09. The result for `CO[C@H]1O[C@H](COC(=O)NCCCCCC(=O)NO)[C@@H](OC(=O)c2ccccc2)[C@H](OC(=O)Nc2ccccc2-c2ccccc2)[C@@H]1OC(=O)Nc1ccccc1-c1ccccc1` reads inactive: 1.
